Assay results reported in publication PMC4336329 (PLoS ONE, 2015).
The campaign covered roughly 310,000 compounds. About 14,000 (4.5%) showed an effect of 50% or more. The effect is printed as a negative number. Some of the results follow.

What follows are compounds tested against human ether-à-go-go-related gene (hERG) potassium channel (human, UniProt Q12809) (assay: primary screen, population patch clamp on CHO cells stably expressing hERG).
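Further: peak tail current of the secondary pulse compared with the same well before compound.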

Chain of human ether-à-go-go-related gene (hERG) potassium channel (Q12809 whole entry, looked up): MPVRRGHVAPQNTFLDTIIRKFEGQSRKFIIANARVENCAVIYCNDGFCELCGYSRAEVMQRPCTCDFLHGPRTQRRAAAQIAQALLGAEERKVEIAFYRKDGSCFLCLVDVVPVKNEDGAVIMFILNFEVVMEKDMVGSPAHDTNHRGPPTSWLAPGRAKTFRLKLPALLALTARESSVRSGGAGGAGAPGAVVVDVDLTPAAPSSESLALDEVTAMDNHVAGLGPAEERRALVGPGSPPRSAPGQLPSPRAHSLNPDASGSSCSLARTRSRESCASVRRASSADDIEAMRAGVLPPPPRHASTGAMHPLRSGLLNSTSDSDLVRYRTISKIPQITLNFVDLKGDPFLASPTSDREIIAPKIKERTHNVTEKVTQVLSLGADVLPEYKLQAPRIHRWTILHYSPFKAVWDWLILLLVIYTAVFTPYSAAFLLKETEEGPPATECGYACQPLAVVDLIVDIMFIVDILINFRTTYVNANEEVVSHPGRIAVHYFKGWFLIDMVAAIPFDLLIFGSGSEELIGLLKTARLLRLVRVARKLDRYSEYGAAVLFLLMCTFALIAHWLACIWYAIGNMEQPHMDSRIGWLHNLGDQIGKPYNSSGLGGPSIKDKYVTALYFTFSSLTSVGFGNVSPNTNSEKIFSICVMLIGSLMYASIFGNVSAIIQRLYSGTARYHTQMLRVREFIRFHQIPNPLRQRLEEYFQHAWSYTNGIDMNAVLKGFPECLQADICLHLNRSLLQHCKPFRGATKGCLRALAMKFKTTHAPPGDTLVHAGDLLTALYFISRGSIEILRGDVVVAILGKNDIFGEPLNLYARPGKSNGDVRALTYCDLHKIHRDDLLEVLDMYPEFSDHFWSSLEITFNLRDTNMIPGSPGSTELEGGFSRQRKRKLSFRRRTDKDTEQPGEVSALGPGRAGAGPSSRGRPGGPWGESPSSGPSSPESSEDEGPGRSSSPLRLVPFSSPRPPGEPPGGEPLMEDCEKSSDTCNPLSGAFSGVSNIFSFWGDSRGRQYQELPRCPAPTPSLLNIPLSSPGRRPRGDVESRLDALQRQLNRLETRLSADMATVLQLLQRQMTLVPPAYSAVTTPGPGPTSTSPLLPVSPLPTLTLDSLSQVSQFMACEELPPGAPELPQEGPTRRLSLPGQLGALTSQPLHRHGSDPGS

Compound	hERG current change (%, negative = inhibition) at 10uM [%]
O=C(NCC(=O)N(c1cnc2ccccc2c1)C(C(=O)NC1CCCC1)c1ccncc1)c1ccco1 (centres unmarked)	8.74
O=C(CN(Cc1ccccc1)C(=O)CCC(=O)Nc1nccs1)NCc1ccc(F)cc1	-1.38
CCOC(=O)[C@H]1[C@H]2COc3ccc(OC)cc3[C@@H]2N2C(=O)c3cc(F)c(F)cc3NC(=O)[C@@]12C	-11.6
CC(=O)Oc1ccc2c(C)cc(=O)[nH]c2c1	19.1
N#Cc1cnn2c1nc(N1CCOCC1)c1ccccc12	1.28
Cc1cc(-c2[nH]nc3c2C(c2ccc(Cl)cc2)C(C#N)=C(N)O3)c(C)s1 (centres unmarked)	7.96
COCCn1c(Cc2ccccc2)nnc1SCc1ccc([N+](=O)[O-])cc1	-55
CCc1ccccc1Nc1nc(N)nc(COC(=O)C2=COCCO2)n1	3.62
COc1ccc(Sc2ccccc2CN(C)C)cc1OC.Cl	-5.59
CCCNC(=O)c1ccccc1NC(=O)COc1cccc2c1OC(C)(C)C2	-11.6
COc1cccc2cc(-c3cc(=O)oc4cc(C)c(OCC(C)=O)cc34)oc12	19
Cc1nnc(NC(=O)CN2CC(C)OC(C)C2)s1 (centres unmarked)	-5.06
CCOC(=O)C1CCN(C(=O)c2ccc(N3CCCC3=O)cc2)CC1	5.05
C=CCSc1n[nH]c2nc3c(c(=O)n12)C1(CCCC1)Cc1ccccc1-3	5.78
S=c1[nH]nc(CSCCOc2ccc(Cl)cc2Cl)o1	13
Cc1ccc2nc(C(=O)N3CCc4c([nH]c5ccccc45)C3c3ccccn3)cn2c1 (centres unmarked)	-31.1
CC(C)(C)c1ccc(C(=O)CCCSC2=C(C#N)C(c3ccco3)C3=C(CCCC3=O)N2)cc1 (centres unmarked)	1.14
CC(=O)NC1=NN(C(C)=O)C(C)(CS(=O)(=O)c2ccc3ccccc3c2)S1 (centres unmarked)	-0.325
CC(C)(C)n1nnc(CCc2nnn(C(C)(C)C)n2)n1	24.2

Compound	hERG current change (%, negative = inhibition) at 10uM [%]
CCCC(=O)Nc1ccc2c(c1)nc(CN1CCN(C(C)=O)CC1)n2C	-0.403
CN(C)/C=N/C(=S)Nc1ccccc1	5.67
Cc1ccc(NC(=O)CN2CCN(CCN=CC3=C(O)CC(c4ccccc4)CC3=O)CC2)cc1 (centres unmarked)	-67.4
CC1=NN(C(=S)Nc2ccccc2)C(C)(C)C1	14
O=C(Nc1ccc(N2CCOCC2)nc1)c1ccccc1Cl	15.4
Nc1[nH]n2c(=O)cc(-c3ccccc3)nc2c1N=Nc1ccccc1	11
COc1ccc(S(=O)(=O)N2CCCC(C(=O)Nc3cccnc3)C2)cc1Cl (centres unmarked)	-34.3
CCOc1cc(C(=O)Nc2c(C)ccc3nsnc23)cc(OCC)c1OCC	-7.05
CC(=O)Nc1ccc(S(=O)(=O)NCC(CCC(=O)O)C(F)(F)F)cc1 (centres unmarked)	16.8
CCOC(=O)c1cccc(NC(=O)Nc2ccc3c(c2)C(=O)OC3)c1	11.9
O=C(CN1CCN(S(=O)(=O)c2ccc(F)cc2)CC1)Nc1ccc2c(c1)OCCO2	-10.9
Cc1ccc(N=C2NC(=O)/C(=C\c3cccs3)S2)cc1C	18.3
O=C(O)CC(C(=O)Nc1ccc(F)cc1)C1CCCO1 (centres unmarked)	4.85
Cc1nnc(SCC(=O)c2c(N)n(Cc3ccccc3)c(=O)n(C)c2=O)n1C	-2.75
COc1ccc(C(=O)OC2CC[C@@]3(C)C4CCC5[C@]6(O)CC(O)[C@@]7(O)C(CN8CC(C)CCC8[C@@]7(C)O)[C@]6(O)C[C@@]53O[C@]24O)cc1OC (some centres unmarked)	12.9
C/C(Cc1ccccc1)=N\NC(=O)CNC(=O)c1ccccc1F	8.09
Cc1ccc(NC(=O)C2CCCN2C(=O)OC(C)(C)C)cc1C (centres unmarked)	1.96
CC(=O)N1CCc2cc(S(=O)(=O)NC(Cc3ccccc3)C(=O)Nc3cc(C)ccn3)ccc21 (centres unmarked)	1.38
Cn1c(SCC(=O)Nc2cccc3ccccc23)nc(O)cc1=O	4.89

Compound	hERG current change (%, negative = inhibition) at 10uM [%]
CN(C(=O)c1ccc2c(=O)n3c(nc2c1)CCCCC3)c1ccccc1Cl	-26.2
Cc1ccc(NC(=O)CSc2ccccc2)cc1S(=O)(=O)N1CCCCC1	-0.653
Cc1ccc2nc(C)c3c(c2c1)SCC3	-27.4
CCN(CC)CCN1C(=O)C(O)=C(C(=O)c2cc3ccccc3o2)C1c1cccnc1 (centres unmarked)	2.92
CN(Cc1ccccc1)S(=O)(=O)CCNC(=O)c1ccc2c(c1)OCO2	11.4
Cc1ccc(NC(=O)CCCn2c(=S)[nH]c3ccsc3c2=O)cc1C	17.1
Cc1cc(=O)[nH]c(SCC(=O)Nc2ccc(F)cc2)c1C#N	15
CN1CCN(C(=O)COc2ccc(S(=O)(=O)Nc3ccc(F)cc3)cc2)CC1	2.27
CN(C)c1cccc2c1c(NC(=O)c1ccc(Cl)cc1)nn2C	-5.71
c1ccc(CN2CCC(Nc3ncnc4sccc34)CC2)cc1	-66.9
OCCC1CN(CC2CC2)CCN1Cc1ccc(F)c(F)c1 (centres unmarked)	-25.5
Cl.O=C(OCCN1CCOCC1)c1cccs1	6.58
O=C(/C=C/c1ccc(F)cc1)NC(=S)Nc1ccccc1O	-1.18
Oc1c(Cl)cc(Cl)cc1CNc1nccs1	9.62
COc1ccc(N=Nc2cc(-c3ccccc3)ccc2O)cc1	-7.23
COc1ccc(-c2cc3nc(C4CCN(C(=O)OC(C)(C)C)CC4)c(C(=O)O)cn3n2)cc1	-5.52
O=C(NCCCN1CCOCC1)C(Cl)(Cl)Cl	9.27
CSc1cccc(NC(=S)N(CCN(C)C)C(C)c2ccccn2)c1 (centres unmarked)	-36.2
